Laboratory results as given in the BET-seq Pho4 binding data (Le et al. 2018).
The list shows a part of the results. Values were computed here from the reads of four pooled replicates and scatter widely.

target: T1, Pho4 (S. cerevisiae) (UniProt P07270); experiment: relative binding free energy (BET-seq); higher = weaker binding; settings: reference: library average
T1 sequence: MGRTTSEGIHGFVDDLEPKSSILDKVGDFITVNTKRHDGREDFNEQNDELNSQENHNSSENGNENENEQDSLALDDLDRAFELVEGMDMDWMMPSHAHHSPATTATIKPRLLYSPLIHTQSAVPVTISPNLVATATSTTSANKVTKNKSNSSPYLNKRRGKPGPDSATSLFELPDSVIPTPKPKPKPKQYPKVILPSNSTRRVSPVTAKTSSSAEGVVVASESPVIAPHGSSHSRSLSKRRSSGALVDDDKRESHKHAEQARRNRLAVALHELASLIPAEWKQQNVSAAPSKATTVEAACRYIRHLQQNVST

| Sequence | relative binding free energy [kcal/mol] |
| --- | --- |
| ATTTGCACGTGGTTAG | -0.02 |
| GGACGCACGTGGTATG | -0.2 |
| ATTGGCACGTGGTGGC | -0.09 |
| TGTAGCACGTGCGTAT | -0.15 |
| TGTTTCACGTGCGTGG | 0.12 |
| GTGTGCACGTGGTCCG | -0.2 |
| TGAGGCACGTGGTGTA | -0.11 |
| TGAGTCACGTGCTGGT | 0.1 |
| GAAGACACGTGTAGTT | 0.24 |
| TTAAACACGTGTCTGT | -0.06 |
| TTGCTCACGTGTTATA | 0.03 |
| GACAACACGTGGGTGG | -0.07 |
| TGGATCACGTGAGTGC | 0.34 |
| GATTACACGTGGGTTA | -0.03 |
| TATAACACGTGGTTAG | -0.11 |
| GTAGTCACGTGTTGTA | 0.17 |
| GGCGTCACGTGTGAGA | 0.23 |
| GGTCTCACGTGTTTTT | 0.38 |
| TTTCGCACGTGGGAGG | -0.11 |
| TTCGTCACGTGGTGTC | 0.12 |
| TTGTCCACGTGTGCGT | 0.04 |
| TTTATCACGTGATATG | 0.27 |
| TGAAGCACGTGTTAGG | -0.12 |

| Sequence | relative binding free energy [kcal/mol] |
| --- | --- |
| CGTCTCACGTGTGGTG | 0.11 |
| CGTTTCACGTGCGATA | 0.41 |
| ACGAACACGTGGTGGG | -0.12 |
| CGAAGCACGTGAGTGG | 0.12 |
| TTGGTCACGTGACGAT | 0.26 |
| ATTCGCACGTGGGTGG | -0.3 |
| ATTTTCACGTGCGTCT | 0.41 |
| TTTGTCACGTGCATTT | 0.12 |
| TTGGACACGTGCTGAT | 0.01 |
| TCTGGCACGTGTGCTT | 0.01 |
| GGGATCACGTGTAGTC | 0.13 |
| TAGATCACGTGGGGTT | 0.06 |
| GGGGGCACGTGGGCCC | -0.21 |
| TGGACCACGTGTCTTG | 0.08 |
| TGTCACACGTGTTGGG | 0 |
| GGCAGCACGTGGCGTT | -0.06 |
| GGCTTCACGTGAAGGG | 0.45 |
| CCTGGCACGTGTGGGC | 0 |
| TGATTCACGTGAAGCG | 0.4 |
| CGTAGCACGTGTAGTA | -0.07 |
| ATGAACACGTGAGAGG | 0.24 |
| TGATGCACGTGAGGGG | 0.29 |
| TTAGCCACGTGGTGTG | -0.19 |

| Sequence | relative binding free energy [kcal/mol] |
| --- | --- |
| TGTAGCACGTGTAAGA | 0.06 |
| TGAATCACGTGTGTTG | 0.1 |
| GTTATCACGTGTTTGG | 0.23 |
| GGAGGCACGTGAAGCT | 0.17 |
| ATGACCACGTGTATGT | 0.04 |
| TTGGACACGTGTTATG | -0.01 |
| TGACACACGTGAGTGT | 0.09 |
| AGGGCCACGTGTAGTT | 0.09 |
| GATGTCACGTGGGGGG | 0.14 |
| CGCTGCACGTGGTTGT | -0.02 |
| ATAGTCACGTGAGAAG | 0.25 |
| CTGATCACGTGGGGTT | 0.04 |
| GGTTCCACGTGGTGTC | 0.04 |
| GTAGGCACGTGTTGCA | -0.1 |
| GATTACACGTGGAGAT | 0.18 |
| ACAGGCACGTGAGGGA | 0.13 |
| TTAATCACGTGTTACT | 0.13 |
| TACGTCACGTGATGTG | 0.11 |
| GTGTACACGTGGGCAG | -0.07 |
| TTTTTCACGTGGTACT | 0.12 |
| TTGGGCACGTGTACAG | -0.25 |
| GGGTTCACGTGGTGGC | 0.34 |
| TGGGGCACGTGGCGTC | -0.3 |

| Sequence | relative binding free energy [kcal/mol] |
| --- | --- |
| GGATCCACGTGGGGTT | 0.08 |
| GCGGACACGTGAGGGT | 0.39 |
| AGAGTCACGTGGTGCA | -0.07 |
| GTGTTCACGTGTGGCG | 0.29 |
| CTTATCACGTGGTGAT | -0.03 |
| TTGCTCACGTGAAGTA | 0.42 |
| GCTGTCACGTGGGGTT | 0.09 |
| TGGTTCACGTGCTGTA | 0.23 |
| GCGGGCACGTGGTTAG | -0.15 |
| TTACGCACGTGTAGCG | 0.03 |
| GATTGCACGTGTTGTA | 0.07 |
| CCTGTCACGTGGAGTT | 0.22 |
| GTGGGCACGTGGAAAT | 0.16 |
| AGCTTCACGTGGGCGT | 0.08 |
| ATTTGCACGTGGAAAA | 0.13 |
| TTAAGCACGTGTATGT | -0.03 |
| AATGTCACGTGAGAGT | 0.29 |
| GGAATCACGTGGGTGT | 0.09 |
| GGGAGCACGTGGTGCC | -0.06 |
| TGGTGCACGTGTGGGA | 0.06 |
| GTAGTCACGTGGGGAC | 0.2 |
| CACTGCACGTGAGGGG | 0.09 |
| ACTTTCACGTGGGTGT | 0.16 |

| Sequence | relative binding free energy [kcal/mol] |
| --- | --- |
| CTTGTCACGTGGAGGA | 0 |
| CGAGGCACGTGAAAGT | 0.25 |
| TGGACCACGTGGATGT | 0.01 |
| AGGTACACGTGTGATA | 0.14 |
| ATAATCACGTGGGTTG | -0.04 |
| TTGTTCACGTGCTCAA | 0.39 |
| AGACGCACGTGTGGTT | -0.05 |
| CGGGTCACGTGGGACG | 0.05 |
| TTTGTCACGTGAAACT | 0.33 |
| TACAACACGTGTGGGT | 0.08 |
| TTGGTCACGTGAAAGC | 0.26 |
| GTTAACACGTGTTATT | 0.1 |
| TGGAACACGTGTAGTT | 0.08 |
| CTGGGCACGTGCCTGG | -0.16 |
| GGTTGCACGTGCTGCG | -0.1 |
| GGTAGCACGTGCGTAA | 0 |
| AGGGCCACGTGTAGAG | -0.03 |
| GCTGGCACGTGATGGG | -0.04 |
| CTGTACACGTGGTGTA | -0.1 |
| AGCTTCACGTGTGTAA | 0.32 |
| GTCGGCACGTGTCGGT | 0.02 |
| GCCGGCACGTGGGGAT | -0.2 |
| TGATGCACGTGAAGAG | 0.16 |
